Measured values as given in the BET-seq Pho4 binding data (Le et al. 2018).
The other results are listed elsewhere or left out. These are noisy estimates, calculated here from bound and input reads.

Target: T1, Pho4 (S. cerevisiae) (UniProt P07270)
T1 sequence: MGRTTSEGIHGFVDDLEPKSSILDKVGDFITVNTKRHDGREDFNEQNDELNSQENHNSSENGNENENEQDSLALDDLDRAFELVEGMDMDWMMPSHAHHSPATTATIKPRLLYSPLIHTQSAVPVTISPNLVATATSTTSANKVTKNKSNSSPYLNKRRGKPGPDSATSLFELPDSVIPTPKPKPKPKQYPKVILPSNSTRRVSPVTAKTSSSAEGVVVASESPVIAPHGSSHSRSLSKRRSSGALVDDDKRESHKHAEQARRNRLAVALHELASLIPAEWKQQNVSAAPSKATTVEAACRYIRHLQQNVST
Assay: relative binding free energy (BET-seq); higher = weaker binding
Details: reference: library average

Sequence | relative binding free energy
GGTCTCACGTGAATTT | 0.38 kcal/mol
GAGGGCACGTGCGTGA | -0.25 kcal/mol
GGATGCACGTGATGTT | 0.12 kcal/mol
TGTGTCACGTGAGGGT | 0.27 kcal/mol
GAAGACACGTGGAGTT | 0.13 kcal/mol
TTGGTCACGTGCTGGA | 0.07 kcal/mol
GTAGCCACGTGGGGTT | -0.24 kcal/mol
ATTATCACGTGTATGT | 0.09 kcal/mol
TTATACACGTGTTTCA | 0.05 kcal/mol
AATTTCACGTGGTTTC | 0.36 kcal/mol
GGTCGCACGTGATTGG | 0.08 kcal/mol
TTGATCACGTGGCGGG | 0.09 kcal/mol
AGATACACGTGTTTTA | 0.11 kcal/mol
AGCTACACGTGTGGTG | 0.07 kcal/mol
TTTGGCACGTGTGTTT | 0 kcal/mol
ATGTTCACGTGACAGT | 0.32 kcal/mol
CAATTCACGTGTGCGT | 0.4 kcal/mol
TTTAGCACGTGTGAAT | 0.1 kcal/mol
CTTCACACGTGTGGGG | 0.03 kcal/mol
GCGTGCACGTGAGAGT | 0.21 kcal/mol
TGAAACACGTGATGTG | 0.13 kcal/mol
GGGTGCACGTGGACGA | -0.01 kcal/mol
TGGTTCACGTGGACCT | 0.29 kcal/mol
GGTGACACGTGAGAGG | 0.22 kcal/mol
GGATACACGTGGCGGG | -0.12 kcal/mol

Sequence | relative binding free energy
ACTTTCACGTGGTTAG | 0.14 kcal/mol
CGTAGCACGTGGTGCC | 0.02 kcal/mol
GGATTCACGTGGTGAA | 0.22 kcal/mol
GGTCGCACGTGAGTAG | 0.18 kcal/mol
GTATACACGTGTCGTG | -0.03 kcal/mol
AGATTCACGTGGAATG | 0.32 kcal/mol
TATGTCACGTGGTTGT | 0.06 kcal/mol
GGGGGCACGTGGACTT | 0.05 kcal/mol
GGAGACACGTGTAAGT | 0.21 kcal/mol
TGGCGCACGTGACTGG | -0.06 kcal/mol
TCATTCACGTGTGTAA | 0.21 kcal/mol
AGCGTCACGTGCATGG | 0.06 kcal/mol
TCTTACACGTGTGTTT | 0.06 kcal/mol
GATTACACGTGGTTAG | -0.02 kcal/mol
TATTACACGTGACGGG | 0.18 kcal/mol
TATTGCACGTGTATCA | 0.08 kcal/mol
TACTGCACGTGTTTAG | 0.01 kcal/mol
TTGTGCACGTGTTCTA | -0.09 kcal/mol
ATCGTCACGTGACGGT | 0.09 kcal/mol
TAGTTCACGTGGATGC | 0.38 kcal/mol
TTATCCACGTGATAGT | 0.2 kcal/mol
GTATGCACGTGAGTGT | 0.27 kcal/mol
GAGAGCACGTGGTGAG | -0.14 kcal/mol
TATGTCACGTGTGTGA | 0.05 kcal/mol
AATTGCACGTGGTTAG | -0.06 kcal/mol

Sequence | relative binding free energy
AATGTCACGTGGGATT | -0.04 kcal/mol
ATTGACACGTGTGTGG | -0.09 kcal/mol
TAAGTCACGTGTGTGG | 0.04 kcal/mol
AGTTGCACGTGCTAGG | -0.09 kcal/mol
AAGGTCACGTGGGCGT | -0.02 kcal/mol
TTGTGCACGTGCGTTT | -0.02 kcal/mol
GTCCTCACGTGTGGGG | 0.3 kcal/mol
AGGGACACGTGAGGGT | 0.14 kcal/mol
TTAGGCACGTGGGGAT | -0.16 kcal/mol
TTTAGCACGTGGCATT | -0.24 kcal/mol
ATCGGCACGTGGGTAA | -0.16 kcal/mol
GAGTTCACGTGTAGTG | 0.29 kcal/mol
GTGGGCACGTGCGAAG | -0.04 kcal/mol
TTTGACACGTGGCGAT | -0.03 kcal/mol
GGAAGCACGTGTGGGC | -0.05 kcal/mol
GGAGTCACGTGGTTAA | 0.15 kcal/mol
GTTATCACGTGCTTAG | 0.09 kcal/mol
GGAGTCACGTGGTGTA | 0.1 kcal/mol
GGAGACACGTGCGGTG | -0.1 kcal/mol
TATTTCACGTGTTGAC | 0.28 kcal/mol
GTTAGCACGTGATGAT | 0.13 kcal/mol
TGTGACACGTGAGTGT | 0.08 kcal/mol
GGGTACACGTGCCTGG | 0.21 kcal/mol
TAATTCACGTGATAAT | 0.33 kcal/mol
GGTAACACGTGTTAGG | 0.06 kcal/mol

Sequence | relative binding free energy
TGGGTCACGTGAGAGC | 0.33 kcal/mol
ATGCTCACGTGATGTG | 0.27 kcal/mol
AGCGTCACGTGCGGGA | -0.02 kcal/mol
GTGTACACGTGGGATT | 0.01 kcal/mol
GAGTTCACGTGGGCAA | 0.22 kcal/mol
TCGGACACGTGGGAGT | -0.05 kcal/mol
GAGGACACGTGGCGGG | -0.04 kcal/mol
CGTGGCACGTGAGGGC | 0.09 kcal/mol
GTGATCACGTGTCTGT | 0.1 kcal/mol
ATTTACACGTGCTGTA | 0.11 kcal/mol
CATTTCACGTGGATGG | 0.17 kcal/mol
AGGGGCACGTGATCGG | -0.08 kcal/mol
GGTTGCACGTGGCTTA | 0 kcal/mol
GGTCTCACGTGGTGGC | 0.15 kcal/mol
GAGAACACGTGGTTGT | 0.13 kcal/mol
CCTTACACGTGGTGGG | 0 kcal/mol
TTTTCCACGTGTGTGT | 0.12 kcal/mol
ATAATCACGTGGGCGT | 0.06 kcal/mol
GTAAACACGTGGTATT | 0.09 kcal/mol
CATTTCACGTGGGTCG | 0.13 kcal/mol
GTGGTCACGTGTGGTT | 0.29 kcal/mol
TGGGACACGTGTAATA | 0.25 kcal/mol
TTTTGCACGTGCAATA | 0.06 kcal/mol
AAAGTCACGTGGTGTA | 0.01 kcal/mol
ATTTGCACGTGGAGTC | 0.18 kcal/mol

Sequence | relative binding free energy
ATGGTCACGTGTCCGG | 0.15 kcal/mol
ATAGGCACGTGATTCT | -0.03 kcal/mol
GTTATCACGTGTTGGT | 0.24 kcal/mol
GGTAACACGTGATGAG | 0.22 kcal/mol
GCTTGCACGTGGGTTT | -0.05 kcal/mol
TGAATCACGTGTTTTC | 0.2 kcal/mol
GGTGGCACGTGGTAGT | -0.11 kcal/mol
CTTTTCACGTGTTCTG | 0.22 kcal/mol
TTTCTCACGTGATTTT | 0.2 kcal/mol
TGATGCACGTGGCGTA | -0.23 kcal/mol
TGTTCCACGTGGTTTG | -0.05 kcal/mol
GCCTTCACGTGTTGGT | 0.34 kcal/mol
GGCTACACGTGGGGCG | -0.02 kcal/mol
TTGAGCACGTGTGTGT | -0.03 kcal/mol
CTGTACACGTGAGGGC | 0.28 kcal/mol
AGGGTCACGTGGCGCC | 0.14 kcal/mol
GGTTGCACGTGCTTTG | 0.02 kcal/mol
AAAGTCACGTGTATGT | 0.07 kcal/mol
GGGAGCACGTGTTGTT | -0.07 kcal/mol
GAGAGCACGTGGTATT | -0.03 kcal/mol
ATTATCACGTGTAAAA | 0.21 kcal/mol
GAACTCACGTGGGTGG | 0.33 kcal/mol
GTATTCACGTGGGCTG | 0.28 kcal/mol
TGAATCACGTGTTGAG | 0.21 kcal/mol
GGTATCACGTGAGTCT | 0.39 kcal/mol

Sequence | relative binding free energy
TTTTTCACGTGTGGTC | 0.31 kcal/mol
GATTCCACGTGTTGGT | 0.08 kcal/mol
ATGAACACGTGGGGCG | -0.16 kcal/mol
GAAGACACGTGGTGTG | -0.04 kcal/mol
GGCTTCACGTGTGGTC | 0.19 kcal/mol
TGGATCACGTGATGTA | 0.2 kcal/mol
TTATCCACGTGGAATT | 0.25 kcal/mol
TTGGTCACGTGGCGGG | 0.02 kcal/mol
TATGTCACGTGTAGCT | 0.07 kcal/mol
GTTAACACGTGGACGT | 0.2 kcal/mol
CGTAGCACGTGCGGGC | -0.11 kcal/mol
TTTATCACGTGCATTT | 0.13 kcal/mol
ATTATCACGTGTAATC | 0.38 kcal/mol
GATAGCACGTGTTTGG | -0.04 kcal/mol
GTCTGCACGTGTTTAG | 0.14 kcal/mol
CATGACACGTGGGTTA | -0.15 kcal/mol
CGGAACACGTGTTGGA | 0.12 kcal/mol
CAGGGCACGTGGTTGA | -0.1 kcal/mol
CGCTGCACGTGGGGCG | -0.24 kcal/mol
CCTTTCACGTGTAGTG | 0.19 kcal/mol
TCGGCCACGTGTATTG | 0.13 kcal/mol
